# Target: T1, hCRTH2 (Homo sapiens, UniProt Q9Y5Y4)
# T1 sequence (Q9Y5Y4 1-395): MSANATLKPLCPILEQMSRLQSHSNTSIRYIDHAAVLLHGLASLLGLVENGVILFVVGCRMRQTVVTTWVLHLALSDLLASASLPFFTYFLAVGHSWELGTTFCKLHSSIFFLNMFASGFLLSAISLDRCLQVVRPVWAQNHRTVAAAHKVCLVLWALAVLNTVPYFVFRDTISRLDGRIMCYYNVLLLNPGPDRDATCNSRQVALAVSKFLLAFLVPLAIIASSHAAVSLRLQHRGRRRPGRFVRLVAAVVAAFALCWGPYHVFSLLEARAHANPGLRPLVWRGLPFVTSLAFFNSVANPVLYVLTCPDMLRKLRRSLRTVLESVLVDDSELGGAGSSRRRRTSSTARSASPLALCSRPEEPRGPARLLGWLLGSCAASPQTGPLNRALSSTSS
# Test: biochemical
# Settings: Ki (nM), Table A; Radioligand Binding Assay A, [3H]PGD2, HEK-hCRTH2 membranes
row,Ki,SMILES
1,1 to 5 nM,"O=C(O)CCC(=O)N(C1CC1)C1c2ccccc2N(C(=O)c2cccc3ccccc23)C2CCCC21 (single isomer, unassigned) [17Bo, 4-[cyclopropyl[cis,cis-2,3,3a,4,9,9a-hexahydro-4-(1-naphthalenylcarbonyl)-1H-cyclopenta[b]quinolin-9-yl]amino]-4-oxobutanoic acid]"
2,1 to 5 nM,"O=C(O)COC(=O)N(C1CC1)C1c2cc(F)c(Cl)cc2N(C(=O)c2ccc(OC(F)(F)F)cc2)C2CCCC21 (single isomer, unassigned) [17CA, [[[[cis,cis-6-chloro-7-fluoro-2,3,3a,4,9,9a-hexahydro-4-[4-(trifluoromethoxy)benzoyl]-1H-cyclopenta[b]quinolin-9-yl]cyclopropylamino]carbon-yl]oxy]acetic acid]"
3,1 to 5 nM,"O=C(O)CCC(=O)N(C1CC1)C1c2ccc(F)cc2N(C(=O)c2ccc(F)cc2)C2CCC21 (single isomer, unassigned) [17CC, 4-[cyclopropyl[cis,cis-5-fluoro-3-(4-fluorobenzoyl)-1,2,2a,3,8,8a-hexahydrocyclobuta[b]quino-lin-8-yl]amino]-4-oxobutanoic acid]"
4,1 to 5 nM,"CCc1ccc(C(=O)N2c3cc(F)ccc3C(N(C(=O)CCC(=O)O)C3CC3)C3CCC32)cc1 (single isomer, unassigned) [17CD, 4-[cyclopropyl[cis,cis-3-(4-ethylbenzoyl)-5-fluoro-1,2,2a,3,8,8a-hexahydrocyclobuta[b]quino-lin-8-yl]amino]-4-oxobutanoic acid]"
5,1 to 5 nM,"O=C(O)CCC(=O)N(C1CC1)C1c2ccc(F)cc2N(C(=O)c2ccc(OC(F)(F)F)cc2)C2CCC21 (single isomer, unassigned) [17CE, 4-[cyclopropyl[cis,cis-5-fluoro-1,2,2a,3,8,8a-hexahydro-3-[4-(trifluoromethoxy)benzoyl]cyclobuta[b]quinolin-8-yl]amino]-4-oxobutanoic acid]"
6,5.1 to 20 nM,"[2H]C1(N(C(=O)CCC(=O)O)C2CC2)c2ccccc2N(C(=O)c2ccc(OC(F)(F)F)cc2)C2CCCC21 (single isomer, unassigned) [17CF]"
7,201 to 7500 nM,"O=C(O)CCC(=O)N(C1CC1)C1c2ccccc2N(C(=O)c2ccc(OC(F)(F)F)cc2)C2CCCC21 (single isomer, unassigned) [17CJ, 4-[cyclopropyl[cis,cis-2,3,3a,4,9,9a-hexahydro-4-[4-(trifluoromethoxy)benzoyl]-1H-cyclopenta[b]quinolin-9-yl]amino]-4-oxobutanoic acid]"
8,1 to 5 nM,"O=C(O)CCC(=O)N(C1CCC1)C1c2ccc(Cl)cc2N(C(=O)c2ccc(OC(F)(F)F)cc2)C2CCCC21 (single isomer, unassigned) [17CK, 4-[[cis,cis-6-chloro-2,3,3a,4,9,9a-hexahydro-4-[4-(trifluoromethoxy)benzoyl]-1H-cyclopenta[b]quinolin-9-yl]cyclobutylamino]-4-oxobutanoic acid]"
9,5.1 to 20 nM,"O=C(O)CCC(=O)N(C1CCC1)C1c2ccc(Cl)cc2N(C(=O)c2cccc(OC(F)(F)F)c2)C2CCCC21 (single isomer, unassigned) [17CL, 4-[[cis,cis-6-chloro-2,3,3a,4,9,9a-hexahydro-4-[3-(trifluoromethoxy)benzoyl]-1H-cyclopenta[b]quinolin-9-yl]cyclobutylamino]-4-oxobutanoic acid]"
10,5.1 to 20 nM,"O=C(O)CCC(=O)N(C1CCC1)C1c2ccc(Cl)cc2N(C(=O)c2ccc(F)cc2)C2CCCC21 (single isomer, unassigned) [17CM, 4-[[cis,cis-6-chloro-4-(4-fluorobenzoyl)-2,3,3a,4,9,9a-hexahydro-1H-cyclopenta[b]quinolin-9-yl]cyclobutylamino]-4-oxobutanoic acid]"
11,5.1 to 20 nM,"O=C(O)CCC(=O)N(C1CCC1)C1c2ccc(Cl)cc2N(C(=O)c2cccc(F)c2)C2CCCC21 (single isomer, unassigned) [17CN, 4-[[cis,cis-6-chloro-4-(3-fluorobenzoyl)-2,3,3a,4,9,9a-hexahydro-1H-cyclopenta[b]quinolin-9-yl]cyclobutylamino]-4-oxobutanoic acid]"

# Reference: patent US8592383B2, “Cycloalkyl-fused tetrahydroquinolines as CRTH2 receptor modulators” (Merck Sharp & Dohme Corp., priority 2011, dated 2013)
